Assay results published in PubChem BioAssay AID463173 (ICCB-Longwood Screening Facility, Harvard Medical School, 2010).
Among all 52,000 compounds or so, about 1,700 (3.3%) were called active. Cut-off read from the data, not from the text of the source: active = survival mostly below about 52% (no sharp cut-off); inactive = mostly above about 56%. Some of the results follow.

Test system: Wild type
Assay: growth inhibition of S. aureus wild type versus tarO mutant, primary screen, teichoic acid synthesis inhibitors, RN4220, OD600 (AID 463173)
Conditions: S. aureus RN4220 wild type/DeltatarO growth, OD600, 18 h, hits give low values, screened at 18.75 µg/mL (by protocol)

Question: Which survival does the source give for COc1cc(NC(=O)CCS(=O)(=O)c2ccc(Br)cc2)cc(OC)c1 here?
Answer: inactive: 66%

Question: With COc1ccc(Cn2ccn(CC(=O)Nc3cc(C)ccc3C)c(=O)c2=O)cc1 as the compound, how does the survival read?
Answer: inactive: 86%

Question: Which survival does the source give for CC(C)c1ccc(-c2noc(SCC(=O)N3CCN(c4ccccc4F)CC3)n2)cc1 here?
Answer: inactive: 73%

Question: How did the survival turn out when Cn1c(CNC(=O)CSc2nc(-c3ccccc3F)nc3cc(=O)[nH]n23)nc2ccccc21 was run?
Answer: inactive: 71%

Question: Which survival does the source give for O=C(NCc1cccs1)c1ccc2c(c1)sc1nc(-c3ccccc3)cn12 here?
Answer: inactive: 98%

Question: With Cc1ccc(NC(=O)Cn2c(=O)ccc3cc(S(=O)(=O)N4CCCC4)ccc32)cc1C as the compound, how does the survival read?
Answer: inactive: 88%

Question: With Cc1c(C(=O)N2CCC(C(=O)Nc3ccc(F)c(Cl)c3)CC2)sc2nc[nH]c(=O)c12 as the compound, how does the survival read?
Answer: inactive: 89%

Question: With COc1cc(CN(C(=O)c2ccccc2)c2ccccn2)cc(OC)c1OC as the compound, how does the survival read?
Answer: inactive: 82%

Question: For Cc1cc2nn(-c3ccc(F)cc3)nc2cc1NC(=O)c1ccc(C(C)(C)C)cc1, which survival is on record?
Answer: inactive: 69%

Question: CCCOc1ccc(C2C(=O)N(C3CCCCCC3)CC(=O)N2C(C)C)cc1OC (centres undefined) was tested. Which survival did it give?
Answer: inactive: 80%

Question: Which survival does the source give for O=C(CC(c1ccccc1)c1cc(Br)ccc1O)NCCN1CCOCC1 (centres undefined) here?
Answer: inactive: 96%

Question: O=C(Nc1ccc2nn(-c3ccccc3)nc2c1)c1ccccc1 was tested. Which survival did it give?
Answer: inactive: 125%

Question: Which survival does the source give for CCOC(=O)/C(C#N)=C1\C(=O)Nc2ccccc21 here?
Answer: inactive: 105%

Question: For COc1ccc(-c2cn3cccnc3n2)cc1NC(=O)c1ccccc1C(F)(F)F, which survival is on record?
Answer: inactive: 69%

Question: Which survival does the source give for COc1ccc2c(c1)c(=O)c(C(=O)c1ccc(F)cc1)cn2CC(=O)Nc1ccc2c(c1)OCCO2 here?
Answer: inactive: 75%

Question: O=C(Cc1ccccc1)Nc1ccc2oc(-c3ccc(Br)cc3)nc2c1 was tested. Which survival did it give?
Answer: inactive: 99%

Question: How did the survival turn out when COc1ccc(-c2oc3ncn4nc(-c5ccccc5OC)nc4c3c2-c2ccc(OC)cc2)cc1 was run?
Answer: inactive: 124%

Question: Which survival does the source give for CC(C)(C)CC(C)(C)N=C1NS(=O)(=O)c2ccccc21 here?
Answer: inactive: 112%

Question: COc1cccc(CNC(=O)Nc2cn(CC(C)C)c(=O)c3ccccc23)c1 was tested. Which survival did it give?
Answer: inactive: 83%

Question: Cc1nc(N2CCCC2)ncc1C(=O)Nc1ccc(OC(F)(F)F)cc1 was tested. Which survival did it give?
Answer: inactive: 83%

Question: How did the survival turn out when COc1ccc(OCc2ccc(-c3nc(C#N)c(NCc4ccc(F)cc4)o3)o2)cc1 was run?
Answer: inactive: 80%

Question: With CCOc1ccc(-n2c(-c3ccc(Br)cc3)cc3c2CC(C)(C)CC3=O)cc1 as the compound, how does the survival read?
Answer: active: 8%

Question: With CCOC(=O)c1cc(-c2ccc(F)cc2)n(CCC(=O)Nc2nc3cc(C)c(C)cc3s2)c1C as the compound, how does the survival read?
Answer: inactive: 77%

Question: Cc1nnc2c3ccccc3nc(Nc3ccc(F)cc3Cl)n12 was tested. Which survival did it give?
Answer: inactive: 88%

Question: How did the survival turn out when Cc1ccc2c(CC(=O)Nc3nnc(C(C)C)s3)coc2c1C was run?
Answer: inactive: 114%

Question: Which survival does the source give for COc1cc(OC)cc(-n2c(=O)c3sccc3n(Cc3cc(=O)n4c(C)cccc4n3)c2=O)c1 here?
Answer: inactive: 148%

Question: OCCN1CCN(c2ncnc3c2cnn3-c2cccc(Cl)c2)CC1 was tested. Which survival did it give?
Answer: inactive: 90%

Question: Which survival does the source give for Cc1cccc(N(C)S(=O)(=O)c2nnc(NC(=O)C(C)(C)C)s2)c1 here?
Answer: inactive: 99%

Question: With Cc1ccc(Cl)cc1NC(=O)Cn1nnc2sc3c(c2c1=O)CCC(C(C)(C)C)C3 (centres undefined) as the compound, how does the survival read?
Answer: inactive: 85%

Question: For COc1ccc(CCNc2ncnc3c2cnn3-c2ccc(F)cc2)cc1, which survival is on record?
Answer: inactive: 55%

Question: With N#Cc1c(SCC(N)=O)nsc1SCC(N)=O as the compound, how does the survival read?
Answer: inactive: 110%

Question: Which survival does the source give for N#CCNC(=O)c1sc2ccccc2c1Cl here?
Answer: inactive: 107%

Question: Brc1ccc(CN2CCc3nc(Nc4ccccc4)ncc3C2)s1 was tested. Which survival did it give?
Answer: inactive: 117%

Question: With O=C(c1ccc2c(c1)N(Cc1ccccc1F)C(=O)c1ccccc1S2=O)N1CCC(Cc2ccccc2)CC1 (centres undefined) as the compound, how does the survival read?
Answer: inactive: 98%

Question: Which survival does the source give for COc1ccc(OC)c(CNC(=O)c2cc3c(=O)oc4ccc(C)cc4c3s2)c1 here?
Answer: inactive: 88%

Question: COc1ccc(N(Cc2cc3cc(OC)ccc3[nH]c2=O)C(=O)c2cccc(Cl)c2)cc1 was tested. Which survival did it give?
Answer: inactive: 87%

Question: For CC(C)C(c1nnnn1C1CCCC1)N1CCc2ccccc21 (centres undefined), which survival is on record?
Answer: inactive: 104%

Question: O=C(CS(=O)(=O)c1nc(-c2ccc(Cl)cc2)cn1-c1ccccc1)Nc1cccc(Cl)c1 was tested. Which survival did it give?
Answer: inactive: 103%

Question: For O=C(Cn1c2ncccc2c(=O)n1-c1ccccc1)NCc1ccccc1, which survival is on record?
Answer: inactive: 80%

Question: With O=C(NCc1ccccc1Cl)c1cc(-c2ccccc2)n[nH]1 as the compound, how does the survival read?
Answer: inactive: 74%

Question: For COCCn1c(CCC(=O)Nc2ccc(OC)c(OC)c2)nc2cccnc21, which survival is on record?
Answer: inactive: 90%

Question: How did the survival turn out when Cc1ccc(NC(=O)c2ccc(F)c(S(=O)(=O)NCCc3ccccc3)c2)cc1F was run?
Answer: inactive: 99%

Question: Which survival does the source give for COc1cccc(C(=O)CS)c1 here?
Answer: inactive: 105%

Question: For Cc1nc(-c2ccccc2)sc1-c1ccc(SCC(=O)Nc2ccccc2)nn1, which survival is on record?
Answer: inactive: 41%

Question: With Cc1ccc(NC(=O)CSc2nc(C)cc(C)c2C#N)cc1 as the compound, how does the survival read?
Answer: inactive: 99%

Question: For COc1cccc(CNC(=O)Cc2c(C)c3cc4c(C)coc4cc3oc2=O)c1, which survival is on record?
Answer: inactive: 86%

Question: How did the survival turn out when CCc1ccc(NC(=O)N2CCN(c3nnc(C)c4c(C)n(-c5ccc(Cl)cc5)nc34)CC2)cc1 was run?
Answer: inactive: 128%

Question: COc1cccc(NC(=O)c2csc3c2CCCCC3)c1 was tested. Which survival did it give?
Answer: inactive: 26%

Question: With Cc1cc(C)cc(NC(=O)CSc2nccn2C2CCCC2)c1 as the compound, how does the survival read?
Answer: inactive: 71%

Question: How did the survival turn out when c1ccc(Nc2c(-c3ccccc3)nc3ncccn23)cc1 was run?
Answer: inactive: 78%

Question: How did the survival turn out when O=C(CCNS(=O)(=O)c1ccc(Br)s1)Nc1ccc(Br)cc1 was run?
Answer: inactive: 78%

Question: For CCN1C(=O)SC(CC(=O)O)C1=O (centres undefined), which survival is on record?
Answer: inactive: 99%

Question: With CN(CC(=O)N1CCCC1=O)Cc1ccccc1 as the compound, how does the survival read?
Answer: inactive: 102%

Question: Cc1ccc(CNCc2ccc3c(c2)n(C)c(=O)n3C)cc1 was tested. Which survival did it give?
Answer: inactive: 87%

Question: COc1ccc(CN(C(=O)Nc2cc(C)ccc2C)C2CCN(C(C)=O)CC2)cc1 was tested. Which survival did it give?
Answer: inactive: 76%

Question: Which survival does the source give for COc1cc(NS(=O)(=O)c2ccc(NC(=O)COc3ccc(Cl)cc3Cl)cc2)nc(OC)n1 here?
Answer: inactive: 93%

Question: How did the survival turn out when CCOc1cccc(CC(=O)NCc2ccc3c(c2)CCN3C(=O)c2cccc(C)c2)c1OCC was run?
Answer: inactive: 95%

Question: With COc1ccc2c(c1)c(=O)c(S(=O)(=O)c1ccc(F)cc1)cn2CC(=O)Nc1ccc(C)cc1C as the compound, how does the survival read?
Answer: inactive: 87%

Question: Which survival does the source give for CCN1C(=O)c2ccccc2Sc2ccc(NC(=O)Cc3ccc(OC)c(OC)c3)cc21 here?
Answer: inactive: 89%
